Results taken from patent US20240376194A1 (WUXI BIOLOGICS IRELAND, published 2024).

T1: WT115-hPro1.ECD.His (human, UniProt Q9NYJ7 27-492)
T1 construct: extracellular domain; Bought protein; also called human D3 ECD protein; human D3-ECD protein; not shown: His tag
T1 sequence (looked up): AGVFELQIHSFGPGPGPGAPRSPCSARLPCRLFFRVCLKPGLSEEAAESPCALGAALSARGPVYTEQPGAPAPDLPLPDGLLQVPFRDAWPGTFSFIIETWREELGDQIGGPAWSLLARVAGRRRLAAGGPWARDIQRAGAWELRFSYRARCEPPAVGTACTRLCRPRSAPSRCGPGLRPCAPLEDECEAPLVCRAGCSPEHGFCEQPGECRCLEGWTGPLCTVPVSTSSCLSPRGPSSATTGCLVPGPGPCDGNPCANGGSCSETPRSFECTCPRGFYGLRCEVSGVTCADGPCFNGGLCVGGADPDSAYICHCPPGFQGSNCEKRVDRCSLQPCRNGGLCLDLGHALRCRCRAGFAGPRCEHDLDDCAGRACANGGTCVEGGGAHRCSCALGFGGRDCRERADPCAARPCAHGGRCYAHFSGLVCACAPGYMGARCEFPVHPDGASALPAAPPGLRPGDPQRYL

T2: full length human D3 on WT115-293F.hPro1.2E5 cells (human, UniProt Q9NYJ7 27-618)
T2 construct: whole, on cells; Isoform printed as Q9NYJ7-1; also called human D3 expressing cell
T2 sequence (looked up): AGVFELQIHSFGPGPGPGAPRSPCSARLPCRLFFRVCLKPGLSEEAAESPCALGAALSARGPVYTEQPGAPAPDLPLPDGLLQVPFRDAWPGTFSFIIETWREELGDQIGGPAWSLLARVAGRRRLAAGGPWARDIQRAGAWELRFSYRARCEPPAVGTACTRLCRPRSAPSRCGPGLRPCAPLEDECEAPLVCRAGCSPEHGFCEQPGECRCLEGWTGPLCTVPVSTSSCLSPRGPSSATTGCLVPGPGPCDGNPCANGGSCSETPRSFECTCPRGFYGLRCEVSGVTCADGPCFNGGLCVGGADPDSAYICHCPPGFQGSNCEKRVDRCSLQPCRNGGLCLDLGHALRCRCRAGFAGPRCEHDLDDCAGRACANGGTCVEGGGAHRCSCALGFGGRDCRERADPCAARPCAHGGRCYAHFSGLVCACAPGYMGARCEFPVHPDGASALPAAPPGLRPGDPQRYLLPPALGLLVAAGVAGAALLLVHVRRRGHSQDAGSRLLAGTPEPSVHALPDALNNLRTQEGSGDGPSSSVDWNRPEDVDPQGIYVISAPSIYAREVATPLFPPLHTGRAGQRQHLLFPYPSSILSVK

T3: WT115-MBP-mPro1.ECD.hFc (mouse, UniProt O88516 33-490)
T3 construct: extracellular domain; Made in Expi293 cells; also called mouse D3; mouse D3 protein; not shown: MBP tag at the N-terminus; human Fc tag at the C-terminus
T3 sequence (looked up): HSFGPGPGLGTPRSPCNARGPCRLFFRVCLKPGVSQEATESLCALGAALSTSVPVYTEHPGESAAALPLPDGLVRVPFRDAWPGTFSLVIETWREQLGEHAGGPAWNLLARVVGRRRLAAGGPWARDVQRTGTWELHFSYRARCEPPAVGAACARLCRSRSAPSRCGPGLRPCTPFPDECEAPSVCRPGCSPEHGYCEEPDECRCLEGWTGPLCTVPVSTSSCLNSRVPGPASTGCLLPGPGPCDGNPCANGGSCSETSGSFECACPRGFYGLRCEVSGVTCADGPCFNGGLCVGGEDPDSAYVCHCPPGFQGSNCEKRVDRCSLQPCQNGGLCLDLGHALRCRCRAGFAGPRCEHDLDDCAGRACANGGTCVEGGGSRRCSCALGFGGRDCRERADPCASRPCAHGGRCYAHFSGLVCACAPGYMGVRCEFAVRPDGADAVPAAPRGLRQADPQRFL


Experiments:
WT115-hPro1.ECD.His [1] = biological target: T1, WT115-hPro1.ECD.His; assay: SPR Biacore T200, antibody captured on anti-human IgG Fc chip, WT115-hPro1.ECD.His as analyte
Procedure: The binding affinity of anti-D3 antibodies to human D3 ECD protein was detected by SPR assay using Biacore T200. Each antibody tested was captured on an anti-human IgG Fc antibody immobilized CM5 sensor chip (GE). WT115-hPro1.ECD.His at different concentrations were injected over the sensor chip at a flow rate of 30 μl/min for an association phase of 180 s, followed by 3600 s dissociation. The chip was regenerated by 10 mM glycine (pH 1.5) after each binding cycle.
The other experimental data was fitted by 1:1 model using Langmiur analysis. The sensorgrams of blank surface and buffer channel were subtracted from the test sensorgrams. Molecular weight of 34 KDa was used to calculate the molar concentration of analyte.

[2] = biological target: T2, full length human D3 on …; assay: FACS on WT115-293F.hPro1.2E5 cells
Procedure: (§1) Anti-human D3 antibodies WT115-BMK1 and WT115-BMK2 were used as positive controls. Human IgG1 isotype antibody was used as a negative control. The cells were washed and resuspended in 4% paraformaldehyde. MFI of the cells was measured by a flow cytometer and analyzed by FlowJo.

[3] = biological target: T2, full length human D3 on …; assay: cell-based or functional assay
WT115-hPro1.ECD.His [4] = biological target: T1, WT115-hPro1.ECD.His; assay: ELISA on immobilized WT115-hPro1.ECD.His
Procedure: Plates were pre-coated with 1 μg/mL, 100 μL per well of WT115-hPro1.ECD.His at 4° C. overnight. The antigen was diluted in coating buffer (0.02 M Na₂CO₃ and 0.18 M NaHCO₃, pH9.2) from stock solution. Next day, the plates were washed using 1×PBST (PBS containing 0.05% tween-20) for one time, and blocking was done by adding 200 μL of 1×PBS/2% BSA. […] After 1-hour blocking, the plates were washed using 1×PBST for 3 times, and then the antibodies were added to the plates and incubated at ambient temperature for 1 hour. Binding of antibodies to the immobilized human D3 was detected by HRP-labeled secondary antibody (Bethyl, A80-304P), which was diluted in 1×PBS/2% BSA at a concentration of 1:10000. After incubation, the plates were washed using 1×PBST for 6 times. The color was developed by dispensing 100 μL of TMB substrate, and then reaction was stopped by adding 100 μL of 2M HCl. Absorbance was read at 450 nm and 540 nm using a microplate spectrophotometer. Anti-human D3 antibodies WT115-BMK1 and WT115-BMK2 were used as positive controls. Human IgG1 isotype antibody was used as a negative control. All samples were tested in duplicate.

[5] = biological target: T4, full length cynomolgus D3 on WT115-Flpin293.cPro1.pool cells (cynomolgus monkey); assay: FACS on WT115-Flpin293.cPro1.pool cells
T4 construct: whole, on cells; The paragraph on the cell pool prints none; also called cynomolgus monkey D3 expressing cell; Cyno D3
Procedure: (§2) WT115-Flpin293.cPro1.pool cells (1×10⁵ cells/well) were incubated with various concentrations of antibodies (4-fold serially diluted from 10 nM to 0.00061 nM) at 4° C. for 1 hour. After washing with 1×PBS/1% BSA, a secondary antibody, Alexa Fluor 647-labeled goat anti-human IgG (1:150, Jackson ImmunoResearch, 109-605-098), as added and incubated with cells at 4° C. in dark for 1 hour. Anti-human D3 antibodies WT115-BMIK1 and WT115-BMK2 were used as positive controls. Human IgG1 isotype antibody was used as a negative control. The cells were washed with 1×PBS/1% BSA and resuspended in 4% paraformaldehyde, and incubated with cells at 4° C. in dark for 0.5 hour. Then change the buffer with 1×PBS/1% BSA and filter the cells. MFI of the cells was measured by a flow cytometer and analyzed by FlowJo.

[6] = biological target: T4, full length cynomolgus D3 on …; assay: FACS on WT115-Flpin293.cPro1.pool cells (FIG. 3b)
Procedure: as §2

WT115-MBP-mPro1.ECD.hFc [7] = biological target: T3, WT115-MBP-mPro1.ECD.hFc; assay: ELISA on immobilized WT115-MBP-mPro1.ECD.hFc (FIG. 4b)
Procedure: (§3) Plates were pre-coated with 1 μg/mL, 100 μL per well of WT115-MBP-mPro1.ECD.hFc at 4° C. overnight. The antigen was diluted in coating buffer from stock solution. Next day, the plates were washed using 1×PBST for one time, and blocking was done by adding 200 μL of 1×PBS/2% BSA. Antibodies were serially diluted (5-fold serially diluted from 20 nM to 0.000256 nM) in blocking buffer. After 1-hour blocking, the plates were washed using 1×PBST for 3 times, and then the antibody were added to the plates and incubated at ambient temperature for 1 hour. […] WT114-BMK1-Biotin antibody was used as a negative control. Binding of antibodies to the immobilized mouse D3 was detected by HRP-labeled secondary antibody (Invitrogen, SNN1004), which was diluted in 1×PBS/2% BSA at a concentration of 1:30000. After incubation, the plates were washed using 1×PBST for 6 times. The color was developed by dispensing 100 μL of TMB substrate, and then reaction was stopped by adding 100 μL of 2M HCl. Absorbance was read at 450 nm and 540 nm using a microplate spectrophotometer. All samples were tested in duplicate.

[8] = biological target: T2, full length human D3 on …; assay: FACS on WT115-293F.hPro1.2E5 cells (FIG. 2b)
Procedure: as §1

[9] = biological target: T2, full length human D3 on …; assay: cell-based or functional assay; remark: listed apart in the source
WT115-MBP-mPro1.ECD.hFc [10] = biological target: T3, WT115-MBP-mPro1.ECD.hFc; assay: ELISA on immobilized WT115-MBP-mPro1.ECD.hFc (FIG. 4a)
Procedure: as §3

| Binder | Kd (WT115-hPro1.ECD.His [1]) | koff (WT115-hPro1.ECD.His [1]) | kon (WT115-hPro1.ECD.His [1]) | EC50 [2] | Internalization EC50 [3] | EC50 (WT115-hPro1.ECD.His [4]) | EC50 [5] | EC50 [6] | EC50 (WT115-MBP-mPro1.ECD.hFc [7]) | EC50 [8] | Internalization (EC50, nM) [9] | EC50 (WT115-MBP-mPro1.ECD.hFc [10]) |
| --- | --- | --- | --- | --- | --- | --- | --- | --- | --- | --- | --- | --- |
| WT1156-P8R2-1H1-uIgG1 (Fc fusion) EVDLVESGGGLVQPGGSLRLSCAASGRTASRYSMVWFRQAPGQEREFVGGNSAHDGRSAYTDSVKGRFTFSRDNAKNTGYLQMNSLRPDDTAVYYCAADTNPPYGPPWSTPSEYEYWGHGTQVTVSS[gap - human IgG1 Fc] | 257 pM | 5.14e-05 s⁻¹ | 200000 M⁻¹ s⁻¹ | 450 pM | 470 pM | 21 pM | 210 pM | – | – | – | – | – |
| WT1156-P3R2-1C9-uIgG1 (Fc fusion) QVQLVESGGGLVQAGGSLRLSCAASGRTTSRYSMVWFRQAPGQEREFVGGNSAHDGRSAYADSVKGRFTFSRDNAKNTGYLQMSSLRPDDTAVYYCAADTNPPYGPPWSTPSEYEYWGHGTQVTVSS[gap - human IgG1 Fc] | 1320 pM | 0.000238 s⁻¹ | 180000 M⁻¹ s⁻¹ | 250 pM | 460 pM | 26 pM | 70 pM | – | – | – | – | – |
| WT1156-P3R2-1H6-uIgG1 (Fc fusion) QVQLVESGGGLVQAGGSLRLSCAASGRTFRSYAMGWFRQAPGKEREFVAAISWIGGGTYYADSVKGRFTISGDNAKNTLYLQMNSLKPEDTAVYYCAASSLLRHGHMFEESDYWGQGTQVTVSS[gap - human IgG1 Fc] | < 92.6 pM | < 1e-05 s⁻¹ | 108000 M⁻¹ s⁻¹ | 520 pM | 950 pM | 14 pM | 250 pM | – | – | – | – | – |
| WT1156-P3R2-1H6-z100-uIgG1 (Fc fusion) QVQLVESGGGVVQPGGSLRLSCAASGRTFRSYAMGWFRQAPGKEREFVAAISWIGGGTYYADSVKGRFTISGDNSKNTLYLQMNSLRAEDTAVYYCAASSLLRHGHMFEESDYWGQGTMVTVSS[gap - human IgG1 Fc] | 217 pM | 1.74e-05 s⁻¹ | 80200 M⁻¹ s⁻¹ | – | – | – | – | 420 pM | – | – | – | – |
| WT1156-P3R2-1C2-z102-uIgG1 (Fc fusion) EVQLVESGGGLVQPGGSLRLSCAASGLTFSTATVGWFRQAPGKGRELIAAIPAYYSTYYASSVKGRFTISRDNAKNSVYLQMNSLRAEDTAVYYCAADDTPSPSRSPFYKHRGQGTMVTVSS[gap - human IgG1 Fc] | 97.7 pM | 1.78e-05 s⁻¹ | 183000 M⁻¹ s⁻¹ | – | – | – | – | 83 pM | 6.7 pM | 88 pM | – | – |

Next, values leading:

| Kd (WT115-hPro1.ECD.His [1]) | koff (WT115-hPro1.ECD.His [1]) | kon (WT115-hPro1.ECD.His [1]) | EC50 [2] | Internalization EC50 [3] | EC50 (WT115-hPro1.ECD.His [4]) | EC50 [5] | EC50 [6] | EC50 (WT115-MBP-mPro1.ECD.hFc [7]) | EC50 [8] | Internalization (EC50, nM) [9] | EC50 (WT115-MBP-mPro1.ECD.hFc [10]) | Binder |
| --- | --- | --- | --- | --- | --- | --- | --- | --- | --- | --- | --- | --- |
| 165 pM | 3.06e-05 s⁻¹ | 185000 M⁻¹ s⁻¹ | – | – | – | – | 96 pM | 7.5 pM | 140 pM | 12.2 nM | – | WT1156-P3R2-1C2-z109-uIgG1 (Fc fusion) EVQLVESGGGLVQPGGSLRLSCAASGLTFSTATVGWFRQAPGKGRELVAAIPAYYSTYYASSVKGRFTISRDNAKNSLYLQMNSLRPEDTAVYYCAADDTPSPSRSPFYKHRGQGTMVTVSS[gap - human IgG1 Fc] |
| 66.8 pM | 1.28e-05 s⁻¹ | 192000 M⁻¹ s⁻¹ | 150 pM | 650 pM | 13 pM | 140 pM | – | – | – | – | 9.2 pM | WT1156-P3R2-1C2-uIgG1 (Fc fusion, It speaks of a dimer only in embodiments; Biotinylated in the mouse D3 ELISA) EVQLVESGGGLVQTGDSLRLSCAASGLTFSTATVGWFRQAPGKERDLIAAIPAYYSTYYASSVKGRFTISRDNAKNTVYLQMNSLKPEDTGVYYCAADDTPSPSRSPFYKHRGQGTQVTVSS[gap - human IgG1 Fc] |
